In the RNAGym collection of RNA variant scans (doi:10.1093/nar/gkz1192):
The source gives no read counts; variants with many changes may rest on few reads.

B1: CPEB3 Ribozyme (parent)
chain: UAACAGGGGGCCACAGCAGAAGCGUUCACGUCGCAGCCCCUGUCAGAUUCUGGUGAAUCUGCGAAUUCUGCUGUAUAUCUC

Variants of: B1
Experiment: self-cleavage, relative activity (ratio to wild type); higher = more cleavage; in vitro, sequencing
In short: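 Relative activity was defined as the cleaved/total read fraction for a variant divided by the same fraction for the unmutated ribozyme. CPEB3 self-cleaving ribozyme libraries were made by rounds of error-prone PCR, barcoded, and transcribed in vitro with T7 RNA polymerase for 5 hours at 37°C, and cleavage ran through transcription plus a 15 min DNase I step before EDTA. Illumina sequencing of template-switched reverse transcripts gave the reads, and DNA sequencing mapped the barcodes. Averages come from three batches, using variants with at least 5 reads.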

Row | Variant | self-cleavage
1 | U41C U51A U60C | 0.71
2 | U41C U51C U60A U72C | 0.52
3 | U41C U51G G52C | 1.11
4 | U41C U54A C68A U69A | 0.38
5 | U41C U54A U66C | 0.49
6 | U41C U54A U69C U74C | 0.74
7 | U41C U54C C62U | 0.12
8 | U41C U54C U58C | 0.49
9 | U41C U54G U58A U72G | 0.11
10 | U41C U58C U66C | 0.35
11 | U41C U58G U72G A77G | 0.18
12 | U41C U60A U72A | 0.31
13 | U41C U60C A65G | 0.19
14 | U41C U60C U69C U76C U80C | 0.33
15 | U41C U60C U72C | 0.57
16 | U41C U60C U76G | 0.56
17 | U41C U66A U69A | 0.26
18 | U41C U66C C68A | 0.23
19 | U41C U66C U69C | 0.15
20 | U41C U66C U72C A75G U80A | 0
21 | U41C U67A A75G | 0.32

Row | Variant | self-cleavage
22 | U41C U67A U72G G73C | 0.54
23 | U41C U67C U69C U80C | 0.18
24 | U41C U69A U76C A77G | 0.94
25 | U41C U69G A75G | 0.57
26 | U41C U76C A77U | 1.18
27 | U41C U78C C79G U80C | 1.22
28 | U41G A64G U72C | 0.09
29 | U41G A65G U69C | 0.07
30 | U41G U43C U54C U66A U67C U72C | 0.47
31 | U41G U49A U67G U69C A77U | 0.08
32 | U41G U49C A64G G73A U80C | 0.22
33 | U41G U54A A77U | 0.29
34 | U41G U54C U58A | 0.09
35 | U41G U60A A77U | 0.28
36 | U41G U60A U80C | 0.4
37 | U41G U60C A75G U78C | 0.17
38 | U41G U66A U80A | 0.08
39 | U41G U67C U80C | 0.1
40 | U41G U69C U78C | 0.05
41 | U41G U69G U76G | 0
42 | U41G U72C U78C | 0.34

Row | Variant | self-cleavage
43 | G42A A45G A75G | 0.13
44 | G42A A45G U60A | 0.14
45 | G42A A56G U60C | 0.46
46 | G42A A64U U76C | 0.09
47 | G42A C59U U66C | 0.22
48 | G42A G52A U60C C81U | 0.07
49 | G42A U43A U54A | 0.25
50 | G42A U43C A75U | 0.48
51 | G42A U49A U51A A75G | 0.09
52 | G42A U51C U54A | 0.25
53 | G42A U51C U67A | 0.18
54 | G42A U54C A56U C62U A64G U69A A77C | 0.06
55 | G42A U58A U80A | 0.19
56 | G42C A45U A64G U66C | 0.13
57 | G42U U49C C59U | 0.2
58 | G42U U60A A65G | 0.12
59 | U43A A45C U54C C81A | 0.63
60 | U43A A45G A47U A64G | 0.09
61 | U43A A45G U72C A77G | 1.11
62 | U43A A45U A64G | 0.31
63 | U43A A45U U72G | 1.06

Row | Variant | self-cleavage
64 | U43A A47U A57G | 0.19
65 | U43A A56G U60C | 0.46
66 | U43A A64G U67G U72A | 0.24
67 | U43A A64G U80A | 0.9
68 | U43A A65C C71U | 0.68
69 | U43A G46C A57G U78C | 0.14
70 | U43A G52U U54A U60C | 1.1
71 | U43A G55A A56G | 0.94
72 | U43A U49C A64U | 0.35
73 | U43A U49C U60C | 0.41
74 | U43A U49C U72G | 0.2
75 | U43A U51A A64G | 0.89
76 | U43A U51A C62A U72A | 0.67
77 | U43A U51A U74A U80A | 1.28
78 | U43A U51C U54C | 1.12
79 | U43A U51C U69A | 0.69
80 | U43A U54C A57G U60C U72A U78C | 0.4
81 | U43A U54C U69C | 0.51
82 | U43A U54C U69C U80A | 0.94
83 | U43A U58C U76C | 0.5
